# Source: the supplement of paper PMC8728848
# The other results are listed elsewhere or left out.
# B1: Banana lectin (Musa acuminata) (protein)
# chain: MNGAIKVGAHGGNGGSAFDMGPAYRIISVKIFSGDVVDGVDVTFTYYGKTETRHYGGSGGTPHEIVLQEGEYLVGMAGEVANYHGAVVLGKLGFSTNKKAYGPFGNTGGTPFSLPIAAGKISGFFGRGGKFLDAIGVYLEPLEHHHHHH
# Tests used:
# Experiment in all cases: glycan array binding signal (z-score within array); higher = stronger binding
# Settings in all cases: glycan notation: IUPAC condensed, linker removed; mutation: W10H
# Gal(a1-3)Gal(b1-4)GlcNAc = target: Gal(a1-3)Gal(b1-4)GlcNAc
# Method in brief: (§1)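 Glycan array data were curated from 3228 arrays in the Consortium for Functional Glycomics database and kept only where the protein sequence was available. Glycan names were converted to IUPAC-condensed notation, and columns mapping to the same glycan were averaged. The binding signal is a within-array Z-score, averaged across arrays of the same protein sequence at different concentrations or buffers and across linkers. Negative Z-scores can be read as non-binding.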
# [1] = target: Gal(a1-3)Gal(b1-4)GlcNAc(b1-2)Man
# Method in brief: as §1
# [2] = target: Gal(a1-3)Gal(b1-4)GlcNAc(b1-2)Man(a1-3)[Gal(a1-3)Gal(b1-4)GlcNAc(b1-2)Man(a1-6)]Man(b1-4)GlcNAc(b1-4)GlcNAc
# Method in brief: as §1
# [3] = target: Gal(a1-3)Gal(b1-4)GlcNAc(b1-3)GalNAc
# Method in brief: as §1
# [4] = target: Gal(a1-3)Gal(b1-4)GlcNAc(b1-6)GalNAc
# Method in brief: as §1
# [5] = target: Gal(a1-3)Gal(b1-4)[Fuc(a1-3)]GlcNAc
# Method in brief: as §1
# [6] = target: Gal(a1-3)Gal(b1-4)[Fuc(a1-3)]GlcNAc(b1-2)Man(a1-3)[Gal(a1-3)Gal(b1-4)[Fuc(a1-3)]GlcNAc(b1-2)Man(a1-6)]Man(b1-4)GlcNAc(b1-4)GlcNAc
# Method in brief: as §1
# Gal(a1-3)GalNAc = target: Gal(a1-3)GalNAc
# Method in brief: as §1
# [7] = target: Gal(a1-3)[Gal(a1-4)]Gal(b1-4)GlcNAc
# Method in brief: as §1
# [8] = target: Gal(a1-4)Gal(b1-3)GlcNAc(b1-2)Man(a1-3)[Gal(a1-4)Gal(b1-3)GlcNAc(b1-2)Man(a1-6)]Man(b1-4)GlcNAc(b1-4)GlcNAc
# Method in brief: as §1
# Gal(a1-4)Gal(b1-4)Glc = target: Gal(a1-4)Gal(b1-4)Glc
# Method in brief: as §1
# Gal(a1-4)Gal(b1-4)GlcNAc = target: Gal(a1-4)Gal(b1-4)GlcNAc
# Method in brief: as §1
# [9] = target: Gal(a1-4)Gal(b1-4)GlcNAc(b1-2)Man(a1-3)[Gal(a1-4)Gal(b1-4)GlcNAc(b1-2)Man(a1-6)]Man(b1-4)GlcNAc(b1-4)GlcNAc
# Method in brief: as §1
# [10] = target: Gal(a1-4)Gal(b1-4)GlcNAc(b1-3)Gal(b1-4)Glc
# Method in brief: as §1
# Gal(a1-4)GlcNAc = target: Gal(a1-4)GlcNAc
# Method in brief: as §1
# Gal(a1-6)Glc = target: Gal(a1-6)Glc
# Method in brief: as §1
# Gal(b1-2)Gal = target: Gal(b1-2)Gal
# Method in brief: as §1
# Gal(b1-3)Gal = target: Gal(b1-3)Gal
# Method in brief: as §1
# Gal(b1-3)Gal(b1-4)GlcNAc = target: Gal(b1-3)Gal(b1-4)GlcNAc
# Method in brief: as §1
# Gal(b1-3)GalNAc = target: Gal(b1-3)GalNAc
# Method in brief: as §1
# [11] = target: Gal(b1-3)GalNAc(a1-3)[Fuc(a1-2)]Gal(b1-4)Glc
# Method in brief: as §1
# [12] = target: Gal(b1-3)GalNAc(a1-3)[Fuc(a1-2)]Gal(b1-4)GlcNAc
# Method in brief: as §1
# Gal(b1-3)GalNAc(b1-3)Gal = target: Gal(b1-3)GalNAc(b1-3)Gal
# Method in brief: as §1
# [13] = target: Gal(b1-3)GalNAc(b1-3)Gal(a1-4)Gal(b1-4)Glc
# Method in brief: as §1
# [14] = target: Gal(b1-3)GalNAc(b1-4)Gal(b1-4)Glc
# Method in brief: as §1
# [15] = target: Gal(b1-3)GalNAc(b1-4)[Neu5Ac(a2-3)]Gal(b1-4)Glc
# Method in brief: as §1
# Gal(b1-3)GlcNAc = target: Gal(b1-3)GlcNAc
# Method in brief: as §1
# [16] = target: Gal(b1-3)GlcNAc(a1-3)Gal(b1-4)GlcNAc
# Method in brief: as §1
# [17] = target: Gal(b1-3)GlcNAc(a1-6)Gal(b1-4)GlcNAc
# Method in brief: as §1
# Gal(b1-3)GlcNAc(b1-2)Man = target: Gal(b1-3)GlcNAc(b1-2)Man
# Method in brief: as §1
# [18] = target: Gal(b1-3)GlcNAc(b1-2)Man(a1-3)[Gal(b1-3)GlcNAc(b1-2)Man(a1-6)]Man(b1-4)GlcNAc(b1-4)GlcNAc
# Method in brief: as §1
# [19] = target: Gal(b1-3)GlcNAc(b1-2)Man(a1-3)[Gal(b1-3)GlcNAc(b1-2)Man(a1-6)]Man(b1-4)GlcNAc(b1-4)[Fuc(a1-6)]GlcNAc
# Method in brief: as §1
# [20] = target: Gal(b1-3)GlcNAc(b1-2)Man(a1-3)[GlcNAc(b1-4)][Gal(b1-3)GlcNAc(b1-2)Man(a1-6)]Man(b1-4)GlcNAc(b1-4)GlcNAc
# Method in brief: as §1
# [21] = target: Gal(b1-3)GlcNAc(b1-2)[Gal(b1-3)GlcNAc(b1-6)]Man(a1-6)[Gal(b1-3)GlcNAc(b1-2)Man(a1-3)]Man(b1-4)GlcNAc(b1-4)GlcNAc
# Method in brief: as §1
# [22] = target: Gal(b1-3)GlcNAc(b1-3)Gal(b1-3)GlcNAc
# Method in brief: as §1
# [23] = target: Gal(b1-3)GlcNAc(b1-3)Gal(b1-4)Glc
# Method in brief: as §1
# [24] = target: Gal(b1-3)GlcNAc(b1-3)Gal(b1-4)GlcNAc
# Method in brief: as §1
# [25] = target: Gal(b1-3)GlcNAc(b1-3)Gal(b1-4)GlcNAc(b1-2)Man(a1-3)[Gal(b1-3)GlcNAc(b1-3)Gal(b1-4)GlcNAc(b1-2)Man(a1-6)]Man(b1-4)GlcNAc(b1-4)GlcNAc
# Method in brief: as §1
# [26] = target: Gal(b1-3)GlcNAc(b1-3)Gal(b1-4)GlcNAc(b1-2)[Gal(b1-3)GlcNAc(b1-3)Gal(b1-4)GlcNAc(b1-6)]Man(a1-6)[Gal(b1-3)GlcNAc(b1-3)Gal(b1-4)GlcNAc(b1-2)Man(a1-3)]Man(b1-4)GlcNAc(b1-4)[Fuc(a1-6)]GlcNAc
# Method in brief: as §1
# [27] = target: Gal(b1-3)GlcNAc(b1-3)Gal(b1-4)GlcNAc(b1-3)Gal(b1-4)GlcNAc(b1-2)[Gal(b1-3)GlcNAc(b1-3)Gal(b1-4)GlcNAc(b1-3)Gal(b1-4)GlcNAc(b1-6)]Man(a1-6)[Gal(b1-3)GlcNAc(b1-3)Gal(b1-4)GlcNAc(b1-3)Gal(b1-4)GlcNAc(b1-2)Man(a1-3)]Man(b1-4)GlcNAc(b1-4)[Fuc(a1-6)]GlcNAc
# Method in brief: as §1
# [28] = target: Gal(b1-3)GlcNAc(b1-3)Gal(b1-4)GlcNAc(b1-6)[Gal(b1-3)GlcNAc(b1-3)]Gal(b1-4)Glc
# Method in brief: as §1
# [29] = target: Gal(b1-3)GlcNAc(b1-3)Gal(b1-4)[Fuc(a1-3)]GlcNAc
# Method in brief: as §1
# [30] = target: Gal(b1-3)GlcNAc(b1-3)Gal(b1-4)[Fuc(a1-3)]GlcNAc(b1-6)[Gal(b1-3)GlcNAc(b1-3)]Gal(b1-4)Glc
# Method in brief: as §1
# [31] = target: Gal(b1-3)GlcNAc(b1-3)GalNAc
# Method in brief: as §1
# [32] = target: Gal(b1-3)GlcNAc(b1-6)Gal(b1-4)GlcNAc
# Method in brief: as §1
binder,measurement,setting,value
B1,glycan array binding signal (z-score),Gal(a1-3)Gal(b1-4)GlcNAc,-0.18
same,glycan array binding signal (z-score),[1],-0.18
same,glycan array binding signal (z-score),[2],-0.121
same,glycan array binding signal (z-score),[3],-0.174
same,glycan array binding signal (z-score),[4],-0.186
same,glycan array binding signal (z-score),[5],-0.185
same,glycan array binding signal (z-score),[6],-0.139
same,glycan array binding signal (z-score),Gal(a1-3)GalNAc,-0.179
same,glycan array binding signal (z-score),[7],-0.164
same,glycan array binding signal (z-score),[8],0.214
same,glycan array binding signal (z-score),Gal(a1-4)Gal(b1-4)Glc,-0.169
same,glycan array binding signal (z-score),Gal(a1-4)Gal(b1-4)GlcNAc,-0.15
same,glycan array binding signal (z-score),[9],-0.165
same,glycan array binding signal (z-score),[10],-0.141
same,glycan array binding signal (z-score),Gal(a1-4)GlcNAc,-0.174
same,glycan array binding signal (z-score),Gal(a1-6)Glc,-0.187
same,glycan array binding signal (z-score),Gal(b1-2)Gal,-0.172
same,glycan array binding signal (z-score),Gal(b1-3)Gal,-0.168
same,glycan array binding signal (z-score),Gal(b1-3)Gal(b1-4)GlcNAc,-0.15
same,glycan array binding signal (z-score),Gal(b1-3)GalNAc,-0.164
same,glycan array binding signal (z-score),[11],-0.162
same,glycan array binding signal (z-score),[12],-0.189
same,glycan array binding signal (z-score),Gal(b1-3)GalNAc(b1-3)Gal,-0.173
same,glycan array binding signal (z-score),[13],-0.144
same,glycan array binding signal (z-score),[14],-0.175
same,glycan array binding signal (z-score),[15],-0.156
same,glycan array binding signal (z-score),Gal(b1-3)GlcNAc,-0.166
same,glycan array binding signal (z-score),[16],1.55
same,glycan array binding signal (z-score),[17],-0.168
same,glycan array binding signal (z-score),Gal(b1-3)GlcNAc(b1-2)Man,-0.145
same,glycan array binding signal (z-score),[18],0.397
same,glycan array binding signal (z-score),[19],-0.071
same,glycan array binding signal (z-score),[20],0.502
same,glycan array binding signal (z-score),[21],0.235
same,glycan array binding signal (z-score),[22],-0.166
same,glycan array binding signal (z-score),[23],-0.186
same,glycan array binding signal (z-score),[24],-0.202
same,glycan array binding signal (z-score),[25],-0.085
same,glycan array binding signal (z-score),[26],0.552
same,glycan array binding signal (z-score),[27],0.096
same,glycan array binding signal (z-score),[28],-0.174
same,glycan array binding signal (z-score),[29],-0.174
same,glycan array binding signal (z-score),[30],-0.157
same,glycan array binding signal (z-score),[31],-0.169
same,glycan array binding signal (z-score),[32],-0.151
